89 compounds from paper PMC4336329 (PLoS ONE, 2015) can be followed below.

Hit rate of the full screen: of about 310,000 compounds, about 2,200 (0.71%) showed an effect of 50% or more. The effect is printed as a negative number. The list shows a part of the results.

human ether-à-go-go-related gene (hERG) potassium channel, sequence (Q12809 whole entry, looked up): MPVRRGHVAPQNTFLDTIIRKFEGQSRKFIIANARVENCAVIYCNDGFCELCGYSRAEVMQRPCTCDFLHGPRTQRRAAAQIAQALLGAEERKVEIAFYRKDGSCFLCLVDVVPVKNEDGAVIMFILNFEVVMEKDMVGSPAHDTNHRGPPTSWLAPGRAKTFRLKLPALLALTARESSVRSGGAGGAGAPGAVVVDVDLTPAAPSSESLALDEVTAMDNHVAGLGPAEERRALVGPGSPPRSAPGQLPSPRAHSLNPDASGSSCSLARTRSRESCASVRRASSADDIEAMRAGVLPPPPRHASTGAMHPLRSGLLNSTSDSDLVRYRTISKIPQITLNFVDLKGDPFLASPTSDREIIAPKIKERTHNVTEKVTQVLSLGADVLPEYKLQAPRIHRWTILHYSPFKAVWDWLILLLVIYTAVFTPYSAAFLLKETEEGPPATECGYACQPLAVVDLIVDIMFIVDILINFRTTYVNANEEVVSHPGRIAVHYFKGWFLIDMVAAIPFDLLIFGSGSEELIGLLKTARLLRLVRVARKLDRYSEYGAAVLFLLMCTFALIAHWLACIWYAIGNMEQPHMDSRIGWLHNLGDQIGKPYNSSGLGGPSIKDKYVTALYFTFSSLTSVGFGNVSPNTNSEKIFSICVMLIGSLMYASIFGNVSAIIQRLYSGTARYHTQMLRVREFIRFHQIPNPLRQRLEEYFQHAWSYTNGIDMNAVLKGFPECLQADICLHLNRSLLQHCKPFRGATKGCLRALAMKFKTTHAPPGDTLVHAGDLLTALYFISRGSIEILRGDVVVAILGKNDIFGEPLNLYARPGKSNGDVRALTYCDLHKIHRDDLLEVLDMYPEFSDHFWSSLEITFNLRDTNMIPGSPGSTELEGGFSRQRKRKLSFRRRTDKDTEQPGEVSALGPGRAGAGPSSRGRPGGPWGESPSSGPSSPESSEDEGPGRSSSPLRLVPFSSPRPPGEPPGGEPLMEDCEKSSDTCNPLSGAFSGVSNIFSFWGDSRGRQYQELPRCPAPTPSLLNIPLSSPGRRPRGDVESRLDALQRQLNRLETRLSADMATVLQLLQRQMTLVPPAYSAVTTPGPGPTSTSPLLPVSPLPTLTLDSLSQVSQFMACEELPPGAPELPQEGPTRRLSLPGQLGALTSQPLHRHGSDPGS

This experiment concerns the target human ether-à-go-go-related gene (hERG) potassium channel (human, UniProt Q12809). The experiment in a line: primary screen, population patch clamp on CHO cells stably expressing hERG.
As to `Cc1nn(Cc2ccc(Br)cc2)c(C)c1NC(=O)c1nn(C)cc1Cl`, the “hERG current change (%, negative = inhibition) at 1uM” value was 11.4%.
In the case of `CCOC(=O)c1sc(NNC(=O)c2ccc(F)cc2)nc1C` it was 10.2%; in that of `COc1cccc(NC(=O)N2CCCC2C(=O)Nc2ccc3c(c2)OCO3)c1` (centres unmarked), 24.4%.
Next, `Cn1cc(CC(=O)NCCCN2CCCC2)c2ccccc21`: 9.93%; `CSc1ccc(S(=O)(=O)N2CC(=O)Nc3ccccc32)cc1`: 10.3%.
Take `Cc1ccnc(NS(=O)(=O)c2ccc(NC(=O)c3cc(-c4ccccc4)nc4ccccc34)cc2)n1`: the “hERG current change (%, negative = inhibition) at 1uM” value is listed as 12.4%.
Next, `Cc1cccc(OCC(=O)NCC(=O)N/N=C/c2ccc([N+](=O)[O-])cc2)c1`: 4.89%; `COc1ccc(/C(C)=N/NC(=O)CNC(=O)/C=C\c2ccco2)cc1`: 8.21%.
In the case of `CC(/C=C\c1ccccc1)=C/C(=O)[O-]` it was 11.1%.
In the case of `Cc1nn(CC(=O)N2CCN(c3ccccc3)CC2)c(=O)c2cccn12` it was 15.1%; in that of `CCc1c(C)nc(SCCOc2ccc(OC)cc2)[nH]c1=O`, 12.3%.
Regarding `CCOC(=O)C(C(=O)Nc1ccccn1)C1CCCCC1` (centres unmarked), the “hERG current change (%, negative = inhibition) at 1uM” value amounted to 2.69%.
In the case of `COC(=O)c1ccccc1NC(=O)c1cccc(NC(=O)c2ccc(Br)o2)c1C` it was 8.2%; in that of `Cc1nc(CN(C)C(=O)C2CCC(=O)N(CCc3cccc(F)c3)C2)cs1` (centres unmarked), 6.16%; in that of `CSc1ncc(OCc2ccccc2)c(=O)[nH]1`, 12.8%.
In the case of `Fc1ccc(-n2nnc(-c3cnc4ccccc4c3)n2)cc1` it was 5.7%; in that of `CCOc1ccc(C2=Nn3cnnc3SC2)cc1`, -6.87%.
Next, `CC1CC(C)CN(C(=O)c2cc3cc(Br)cc(Br)c3o2)C1` (centres unmarked): 11.6%; `COc1cc(OC)c(OC)cc1/C=N/NC(=S)NCCN1CCOCC1`: 3.63%.
`COc1ccc(C[C@H]2CN3C(=NC[C@H]3C)N2CCNC(=O)CCC2CCCCC2)cc1`: the “hERG current change (%, negative = inhibition) at 1uM” value was -51.9%.
Consider `Cc1ccn2c(C(=O)c3ccc(Cl)cc3)cnc2c1`, for which the “hERG current change (%, negative = inhibition) at 1uM” value came out at 12.7%.
For the compound `CCCCCN(C(=O)CSc1n[nH]c(-c2ccc(C)cc2)n1)c1c(N)n(CCCC)c(=O)[nH]c1=O`, the “hERG current change (%, negative = inhibition) at 1uM” value is 15.8%.
As to `C=C(C)Cn1c(CCn2c3ccccc3c3ccccc32)n[nH]c1=S`, the “hERG current change (%, negative = inhibition) at 1uM” value turned out to be 4.97%.
Take `N#Cc1cccnc1Nc1ccc(Cl)cc1`: the “hERG current change (%, negative = inhibition) at 1uM” value is reported as -7.84%.
In the case of `CC(C)OCCCn1c(SC(C)C(=O)NC2CC2)nc2ccccc2c1=O` (centres unmarked) it was 1.83%.
Next, `O=C(CN1CCSCC1)N/N=C/c1ccc(Cl)cc1`: -0.466%; `O=S(=O)(c1ccccc1)N(F)S(=O)(=O)c1ccccc1`: -0.313%.
In the case of `CC1=C(C)CC(C(=O)Nc2ccc3c(c2)OCO3)C(C(=O)O)C1` (centres unmarked) it was 11.8%.
As to `O=C(CC(C(=O)O)c1cccc(Cl)c1Cl)c1ccccc1` (centres unmarked), the “hERG current change (%, negative = inhibition) at 1uM” value is reported as 20.3%.
Next, `CC(=O)N1CCc2cc(S(=O)(=O)C(C)CC(=O)NCc3ccc(C)o3)ccc21` (centres unmarked): 19%; `CCOc1ccc(OCCC(=O)OCC(=O)Nc2ccc(N3CCOCC3)cc2)cc1`: 12.9%; `C#Cc1cccc(C(=O)N2CCCC(C(=O)c3ccc(OC)cc3C)C2)c1` (centres unmarked): 5.32%.
In the case of `C=C1CCN([C@@H](CC(C)C)C(=O)N2CCCC2)S(=O)(=O)c2ccccc21` it was -4.55%.
Next, `Cc1ccc(NC(=S)NC(=O)c2ccccc2)cc1NC(=S)NC(=O)c1ccccc1`: 11.3%; `CCc1nnc(NC(=O)CSc2n[nH]c(-c3ccccc3O)n2)s1`: 4.65%; `O=[N+]([O-])c1ccc(NCCCO)c(S(=O)(=O)N2CCOCC2)c1`: 2.08%.
As to `Cc1ccc(-n2c3nc(=O)[nH]c(=O)c-3cc3cc([N+](=O)[O-])ccc32)cc1`, the “hERG current change (%, negative = inhibition) at 1uM” value is listed as -10.4%.
Next, `COc1ccc(CNC(=O)COC(=O)CCOc2ccc(C)cc2)cc1OC`: 11.9%.
Next, `COc1ccc(C(C(=O)NC2CCCCC2)N(C(=O)c2ccco2)c2ccccc2C(C)=O)cc1` (centres unmarked): 10.2%; `CN1CCN(S(=O)(=O)c2csc(C(N)=O)c2)CC1`: 13%.
In the case of `CCCC12CN3CC(CCC)(CN(C1)C3C(O)C(O)C(O)CO)C2=O` (centres unmarked) it was 5.69%; in that of `Cc1nc2sc(C(c3cccc(F)c3)N3CCC(C)CC3)c(O)n2n1` (centres unmarked), 3.46%.
Turning to `Cc1ccc2nc(N3CCN(S(=O)(=O)c4ccc5c(c4)OCCO5)CC3)c(C#N)cc2c1`, the “hERG current change (%, negative = inhibition) at 1uM” value worked out at 11.1%.
In the case of `O=C1NC(=O)C2C1C(c1ccccc1)N1C3C(=O)NC(=O)C3C(c3ccccc3)N21` (centres unmarked) it was 10.3%.
In the case of `COc1ccc(NC(=S)N/N=C/c2cccn2Cc2ccccc2F)cc1` it was 7.36%; in that of `CSc1nsc(SCC(=O)Nc2ccc(O)c(C(=O)O)c2)n1`, 6.95%; in that of `COc1ccc(N(C)S(=O)(=O)c2ccc3c(c2)NC(=O)CO3)c(OC)c1`, 6.48%.
Next, `CC1(C)CC(n2c(NCCO)nc3c(c2=O)C2(CCCC2)Cc2ccccc2-3)CCO1` (centres unmarked): 13.3%; `Cn1c(=O)c2c(nc(NCCCO)n2Cc2cccc(Br)c2)n(C)c1=O`: 11%; `COc1ccc(Cc2noc(CN3CCCC(OCc4ccccn4)C3)n2)cc1OC` (centres unmarked): 1.93%.
In the case of `CCOC(=O)C1CCN(c2nc3ccccc3n2CC(=O)c2ccccc2)CC1`, the “hERG current change (%, negative = inhibition) at 1uM” value came to 12.5%.
In the case of `COc1ccc(NC(=O)NN2CCN(C)CC2)cc1OC` it was 9.68%; in that of `CCOc1ccccc1NS(=O)(=O)c1c[nH]c(C(=O)OC)c1`, 6.6%.
With `CC(Oc1ccc(F)cc1)C(=O)Nc1ccc(N2CCOCC2)cc1N1CCOCC1` (centres unmarked), the “hERG current change (%, negative = inhibition) at 1uM” value is recorded as 4.3%.
Next, `COC(=O)CCCNC(=O)c1ccc(OC2CCN(CCc3ccccc3)CC2)cc1`: -12.7%; `O=c1[nH]c(=O)n(-c2ccccc2)c(O)c1/C=C1/C(c2ccccc2)=Nc2ccccc21`: 5.01%.
On to `O=C1C=C(c2cc(Cl)cc(Cl)c2)C[C@@H](c2ccc(F)cc2)C1`, for which the “hERG current change (%, negative = inhibition) at 1uM” value came out at 16.8%.
Turning to `O=C(CNC(=O)c1cccc(Cl)c1)NCCCSc1ccccc1`, the “hERG current change (%, negative = inhibition) at 1uM” value is listed as 1.57%.
In the case of `COc1ccc(CNS(=O)(=O)c2c(C)[nH]c(C)c2C(=O)N2CCCCC2)cc1` it was 8.95%.
Next, `O=C(CCCN1C(=O)CCC1=O)Nc1ccccc1F`: 13.5%.
In the case of `NC(=O)c1nn(-c2ccccc2)nc1NC(=O)CSc1nnnn1-c1ccc(Cl)cc1`, the “hERG current change (%, negative = inhibition) at 1uM” value was -34.8%.
For `CCN(CC)CCCn1c2c(c(SCC(=O)Nc3ccc4c(c3)OCCO4)nc1=O)CCC2`, the “hERG current change (%, negative = inhibition) at 1uM” value is on record as -16.7%.
In the case of `Brc1ccccc1Cn1c(-c2cncs2)nc2ccccc21` it was -2.18%; in that of `Cn1c(C(=O)N2CCc3ccccc3C2)cc2c(=O)n3ccccc3nc21`, 1.88%; in that of `O=S(=O)(c1ccc(Br)cc1)c1nc(-c2ccccc2)oc1NCc1cccnc1`, 5.78%.
Next, `Cc1cccc(C(=O)Nc2cccc(-c3ccc4nncn4n3)c2)c1`: 11.5%.
Turning to `CC(=O)Nc1ccc(Nc2nc3ccccc3nc2NS(=O)(=O)c2ccccc2)cc1`, the “hERG current change (%, negative = inhibition) at 1uM” value came to 8.7%.
In the case of `CCOc1ccc(NC(=S)N2CCCC2)cc1` it was 10%.
Turning to `CC(=O)c1ccc(N2CCN(C(=O)C3CCN(S(=O)(=O)c4cccs4)CC3)CC2)cc1`, the “hERG current change (%, negative = inhibition) at 1uM” value is on record as 6.67%.
In the case of `Cc1nc2ccccc2n1CC(=O)NN` it was 9.07%; in that of `Cc1cc2[nH]c(=O)c(=O)[nH]c2cc1S(=O)(=O)NC1CCC(C)CC1` (centres unmarked), 12.9%.
In the case of `Cc1ccc(-c2nnc(SCC(=O)N/N=C/c3ccccc3C(=O)O)n2-c2ccccc2)cc1` it was 9.94%; in that of `O=c1c2ccccc2ncn1-c1cccc(Br)c1`, 7.85%.
As for `O=S(=O)(c1ccc(Cl)cc1)N1CCN(c2ccc(N3CCOCC3)nn2)CC1`, the “hERG current change (%, negative = inhibition) at 1uM” value was -3.45%.
Next, `CC(C)OC(=O)CC(=O)CSc1nc2c(cc1C#N)CCC2`: 16.3%; `O=C(NCc1ccncc1)C(=O)C1C(=O)Nc2ccccc21` (centres unmarked): -3.46%; `CCOC(=O)c1c(N2C(=O)C=CC2=O)sc(C)c1C`: 13.5%.
In the case of `CCOC(=O)N1CCN(c2ccc(C(C)=O)cc2F)CC1` it was 13.2%; in that of `COCCNc1nc(-c2cc(C)n(CCc3ccc(OC)cc3)c2C)cs1`, 3.17%; in that of `Cc1ccccc1N1C(=O)NC(=O)/C(=C\c2cc(Br)c(N3CCOCC3)o2)C1=O`, 11.6%.
Next, `O=C1NCCN1CCNS(=O)(=O)c1ccc2ccccc2c1`: 5.24%; `O=C(Cc1ccccc1)c1c[nH]c(C(=O)O)c1`: 28.5%.
Take `O=C(O)/C=C/C(=O)Nc1nc(-c2ccc3ccccc3c2)cs1`: the “hERG current change (%, negative = inhibition) at 1uM” value is reported as 11.3%.
Take `Cc1cccc(NC(=O)CSCc2c(C)noc2C)c1C`: the “hERG current change (%, negative = inhibition) at 1uM” value is reported as 18.9%.
In the case of `O=C(c1cccc(Cl)c1)N1CCN(c2ncnc3c2cnn3-c2ccccc2)CC1` it was 9.09%; in that of `Cc1[nH]c(=O)[nH]c(=O)c1S(=O)(=O)Nc1cccc([N+](=O)[O-])c1C`, 11.5%; in that of `Oc1c(C(Nc2ccccn2)c2cccnc2)cc(Cl)c2cccnc12` (centres unmarked), 1.75%.
Next, `COc1ccc(NC(=O)CCC(=O)NCCO)cc1`: 21.6%.
In the case of `CCOC(=O)NC(C(Cl)(Cl)Cl)S(=O)(=O)c1ccccc1` (centres unmarked) it was 7.15%.
